Several values for one entry are separate records, joined by “and”; a condition that tells them apart may be missing. Equal entries are not always repeated. Out of some 110,000 compounds screened, about 230 (0.21%) showed an effect of 50% or more. This is one part of the list.
Biological target: DPAP1 (Plasmodium falciparum, UniProt Q8IIJ9)
Assay: primary screen, percent inhibition; read by cleavage of a fluorogenic dipeptide substrate; higher = more effect of the substance
Set-up: species or system P. falciparum D10 trophozoite lysates; single well
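Further: 30 min substrate incubation versus DMSO and 10 µM JCP410 controls.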

Chain of DPAP1 (Q8IIJ9 whole entry, looked up): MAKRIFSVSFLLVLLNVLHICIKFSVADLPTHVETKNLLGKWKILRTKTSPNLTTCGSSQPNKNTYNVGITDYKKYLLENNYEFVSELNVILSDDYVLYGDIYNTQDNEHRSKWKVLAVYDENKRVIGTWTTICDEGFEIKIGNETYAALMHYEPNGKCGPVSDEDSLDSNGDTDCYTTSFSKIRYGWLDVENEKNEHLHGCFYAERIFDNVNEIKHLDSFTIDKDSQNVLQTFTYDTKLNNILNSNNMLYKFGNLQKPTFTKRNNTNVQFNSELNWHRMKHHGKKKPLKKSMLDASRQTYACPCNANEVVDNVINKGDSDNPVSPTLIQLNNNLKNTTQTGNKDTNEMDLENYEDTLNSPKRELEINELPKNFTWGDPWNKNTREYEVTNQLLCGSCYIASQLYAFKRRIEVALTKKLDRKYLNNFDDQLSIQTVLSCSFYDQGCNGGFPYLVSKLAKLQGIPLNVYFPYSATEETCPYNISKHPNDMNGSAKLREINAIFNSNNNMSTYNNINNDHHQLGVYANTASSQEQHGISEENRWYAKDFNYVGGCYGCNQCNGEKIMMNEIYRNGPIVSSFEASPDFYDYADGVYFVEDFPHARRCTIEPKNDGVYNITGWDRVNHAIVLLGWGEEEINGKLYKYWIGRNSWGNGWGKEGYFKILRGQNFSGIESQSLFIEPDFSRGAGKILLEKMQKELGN

| Structure (SMILES) | % Inhibition @ 10 uM |
| --- | --- |
| Cc1ccc(S(=O)(=O)N2CCN(C(=O)CN3CCCC3)C2)cc1 | 4.54% |
| CCOc1ccc(NC(=O)Cc2ccc(Cl)cc2)cc1 | -1.43% |
| CCSc1nnc2n(CC)c3ccccc3n12 | 6.01% |
| CCCCSc1nnc(NC(=O)Cc2coc3ccc(OC)cc23)s1 | -1.31% |
| CCCSc1nc(C)c(CCC(C)C)c(O)n1 | 4% |
| Cc1cc(C)c(S(=O)(=O)Nc2ccc(O)c(C(=O)O)c2)cc1C | 2.86% |
| CCn1cc(Cl)c(C(=O)N(C)C23CC4CC(CC(C4)C2)C3)n1 | 0.687% |
| N#Cc1c(Nc2ccccc2)ccnc1S | 5.48% |
| COc1cccc(C2C(C#N)=C(N)Oc3cc(N)ccc32)c1 (stereo not shown) | 1.4% |
| c1ccc(-c2nnn3c2nc(N2CCOCC2)c2ccccc23)cc1 | -2.92% |
| Cc1cc2cc(C)nn2c(N)n1 | -3.56% |
| COC(=O)c1ccccc1NC(=O)c1ccc(OC(C)C)cc1 | 1.94% |
| CC1CCN(S(=O)(=O)c2ccc(NC(=O)Cc3ccc(Cl)cc3)cc2)CC1 | 2.4% |
| COc1cccc(OCc2ccc(C(=O)N3CCN(c4ccccc4)CC3)cc2)c1 | 2.73% |
| Nc1c(-c2nc(-c3ccncc3)no2)nnn1-c1ccc(C(F)(F)F)c(Cl)c1 | 3.73% |
| Cc1cc(-c2ccco2)n(CC(=O)NCc2ccccc2Cl)n1 | -1.75% |
| COCCNC(=O)c1cc2nc(-c3ccc(Br)cc3)cc(C(F)(F)F)n2n1 | -1.04% |
| CSc1nsc(SCC(=O)Nc2ccccn2)n1 | -1.15% |
| CCc1ccc(N2CC(C(=O)Nc3cccc(O)c3)CC2=O)cc1 (stereo not shown) | 1.93% |
| O=C(NCc1ccc2c(c1)OCO2)C1c2ccccc2C(=O)N(C2CCCC2)C1c1cccs1 (stereo not shown) | -5.3% |
| O=C(COCc1cc(-c2ccc3c(c2)OCO3)on1)Nc1cc(-c2cccc(Cl)c2)no1 | 1.34% |
| O=C(Cn1cc2c(n1)CCCCC2)NC1CCCc2ccccc21 (stereo not shown) | 0.137% |
| Cc1nc2c(C(=O)N3CCN(c4ccccn4)CC3)cnn2c(C)c1Cc1ccccc1Cl | 2.79% |
| CCCCN(C)CCCNC(=O)C1CCC(CNS(=O)(=O)c2c(C)cc(C)cc2C)CC1 (stereo not shown) | -2.72% |
| O=C(O)CC(NC(=O)COc1ccccc1)c1ccccc1 (stereo not shown) | 8.82% |
| CC1=C(C(=O)Nc2ccccc2F)C(c2ccc3c(c2)OCO3)C2=C(O)CC(c3ccccc3)CC2=N1 (stereo not shown) | -4.48% |

| Structure (SMILES) | % Inhibition @ 10 uM |
| --- | --- |
| Cc1ccc(C)c(Cc2c(C)nc3c(C(=O)NC4CCC(C)CC4)cnn3c2C)c1 (stereo not shown) | 1.27% |
| O=C(Nc1ccc(OCC(=O)N2CCOCC2)cc1)c1ccccc1Cl | 0.823% |
| COc1ccc2c(c1)c1nc(SC)n(C)c(=O)c1n2C | 1.7% |
| COc1ccc(CN2CCN(CCOCCO)CC2)cc1C | -3.8% |
| O=C(NCCCN1CCCC1=O)Nc1cnc2ccccn2c1=O | 5.2% |
| COc1cc(/C=C/c2cc(C(F)(F)F)nc(O)n2)ccc1O | 2.41% and -5.85% |
| CCCn1c(-c2cccc(C)c2)nc2ccccc21 | 2.73% |
| COc1ccc(Cl)cc1NC(=O)CC(C(=O)O)N1CCNCC1 (stereo not shown) | -9.19% |
| CCC(C(=O)N1CCN(c2ccccn2)CC1)n1nc(C)c2sc3ccccc3c2c1=O (stereo not shown) | -3.6% |
| CN(C)CCCN(CCCN(C)C)CC1CC2C=CC1C2 (stereo not shown) | 0.0792% |
| NS(=O)(=O)c1ccc(NC(=O)c2cccc(F)c2)cc1 | 0.177% |
| CC(C)(C)c1ccc(C(=O)NCc2cccnc2)cc1 | -5.36% |
| CC1(C)Oc2ccc3ccc(=O)oc3c2C(N2CCCCC2)C1O (stereo not shown) | 2.1% |
| Fc1ccc(N2N=C(c3ccc(Br)cc3)CC2c2cccs2)c(F)c1 (stereo not shown) | 1.91% |
| COc1ccc(C2C(C(=O)Nc3ccccc3C)=C(C)Nc3ncnn32)c(OC)c1 (stereo not shown) | 4.75% |
| OC1=C2C(=Nc3[nH]nc(-c4ccccc4)c3C2c2cccs2)CCC1 (stereo not shown) | -0.326% |
| NC12CC3CC(C1)CC(C(=O)O)(C3)C2 | 0.526% |
| Cc1ccc(C)c(Cn2cc(C=O)c3ccccc32)c1 | -2.72% |
| CC(NC(=O)C1CCN(S(=O)(=O)c2ccc(Br)s2)CC1)c1ccccc1 (stereo not shown) | -2.56% |
| COc1ccc(C2=NN(CC(=O)NCCCN(C)Cc3ccccc3)C(=O)CC2)cc1 | -3.58% |
| COc1cc2c(cc1OC)C(c1cc(OC)c(OC)cc1[N+](=O)[O-])NCC2 (stereo not shown) | -2.59% |
| COc1ccc(N(C(C)C(=O)N(C)Cc2ccccc2)S(C)(=O)=O)cc1 (stereo not shown) | -0.69% |
| COc1ccc(-c2csc3ncn(CC(=O)Nc4sc5c(c4C#N)CCC5)c(=O)c23)cc1OC | -4.76% |
| CC(C)(C)NCCCOc1cccc(Cl)c1Cl | 3.48% |
| c1ccc2c(c1)CC1(CCCCC1)N=C2N1CCOCC1 | -3.95% |
| Cc1ccc2c(c1)-c1onc(C(=O)Nc3ccc(Cl)cn3)c1CO2 | -3.17% |

| Structure (SMILES) | % Inhibition @ 10 uM |
| --- | --- |
| O=C(Nc1ncc(Br)s1)C(Cc1ccccc1)n1cccc1 (stereo not shown) | 2.6% |
| O=C1CSC2N1CCNC21CCCCC1 (stereo not shown) | -4.21% and -2.97% |
| OCc1nc2ccccc2n1Cc1ccc(Cl)cc1 | 1.27% |
| CCC(CC)C(=O)Nc1ccc2c(c1)C(=O)N(CCC(=O)O)C2=O | -0.891% |
| NC(=O)C1=CN(Cc2ccccc2)C=CC1 | -6.82% |
| COCCn1c(Cc2cccn2C)nnc1SCC(=O)NCc1ccc2c(c1)OCO2 | -1.84% |
| NC1=NC2(CCCCC2)n2c(nc3ccccc32)N1 | -1.72% |
| Cc1ccc(-n2nc(C)c(CCC#N)c2O)cc1 | -2.73% |
| CCN(CC)C(=O)C1c2ccccc2C(=O)N(C2CCCC2)C1c1cccs1 (stereo not shown) | -5.3% |
| COc1ccc(CC(=O)Nc2c3c(nn2-c2ccc(F)cc2)CS(=O)(=O)C3)cc1OC | -4.18% |
| COc1cccc(NC(=O)c2ccncc2)c1 | -0.294% |
| COc1ccc2[nH]c(C)c(CCNC(=S)NCc3ccccc3)c2c1 | -0.431% |
| CC(CNC(=O)Cc1ccccc1)NC(=O)Cc1ccccc1 (stereo not shown) | -2.99% |
| CCOc1ccccc1N(CC(=O)NCc1ccccc1)S(C)(=O)=O | -2.8% |
| COC(=O)c1ccc(CN2CCCCCC2)cc1 | -3.5% |
| O=C(NCc1ccc(F)cc1)c1nc(-c2cccs2)no1 | -4.42% |
| Cc1oc(N)c(C#N)c1C | 1.46% |
| COCCCNC(=O)/C(C#N)=C/c1c(Oc2ccc(Br)cc2)nc2c(C)cccn2c1=O | -3.23% |
| Cc1nc2ccccc2n1C(=O)c1ccc(Cl)cc1 | -0.192% |
| O=C(/C=C/c1ccc(F)cc1)NC(=S)N1CCCCC1 | -2.59% |
| O=C(Nc1ccccc1Br)c1ccc(F)cc1 | -0.294% |
| COc1ccc(S(=O)(=O)NCC(=O)Nc2ccc(Oc3ccccc3)cc2)cc1 | 3.37% |
| COCCNC(=O)Cc1c(C(=O)O)n(C)c2ccccc12 | 0.457% |
| COC(=O)C1CCCc2c1[nH]c1ccc(Cl)cc21 (stereo not shown) | 6.39% |
| CCn1c(C(=O)NC(C)CCc2ccccc2)cc2sccc21 (stereo not shown) | -8.58% |
| Cc1cccn2c(=O)c(/C=C(\C#N)C(=O)NCC3CCCO3)c(Oc3ccccc3F)nc12 (stereo not shown) | -1.43% |

| Structure (SMILES) | % Inhibition @ 10 uM |
| --- | --- |
| Cc1ccc(C(=O)CCNc2ccc(Cl)cc2)o1 | -4.93% |
| Cn1cnc2c(=O)oc3ccc(S(=O)(=O)NCCC4=CCCCC4)cc3c21 | -3.66% |
| C=CCOc1ccccc1/C=c1\sc2nc(=O)c(-c3ccccc3)nn2c1=O | -5.2% |
| CN(CC(=O)N1CCN(c2ccccc2)CC1)S(=O)(=O)c1cc(Cl)ccc1Cl | -3.77% |
| CCC(C)NC(=O)Cn1ccc2cc(S(=O)(=O)N3CCCC3)ccc21 (stereo not shown) | 3.64% |
| CCn1c(-c2ccccc2)cc(C(=O)O)c1C | -3.33% |
| CC(Cc1ccc(OCCCN(C)C)cc1)N(C)C (stereo not shown) | -3.65% |
| CC1=C(C(=O)Nc2cccc(C)c2C)C(c2ccc(N(C)C)cc2)NC(=O)N1 (stereo not shown) | 3.27% |
| Cc1ccc(S(=O)(=O)Nc2cc(S(N)(=O)=O)ccc2C)cc1 | -3.72% |
| COc1ccc(S(=O)(=O)N2CC=C(c3c(C)n(CC(=O)N4CCCC4)c4ccccc34)CC2)cc1 | 3.96% |
| O=C(O)c1cc(-c2ccncc2)nc2[nH]nc(-c3ccc(F)cc3)c12 | -6.69% |
| Cc1ccc2nc(N3CCCCCC3)c3nnnn3c2c1 | -0.943% |
| OC1CCCN(Cc2cc(Br)cs2)C1 (stereo not shown) | -4.5% |
| CCC(C)N1CCN(Cc2cccc(OC)c2OC)CC1 (stereo not shown) | 5.15% |
| CC(C)(C)c1ccc(-c2noc(CCC(=O)N3CCCCC3)n2)cc1 | 2.02% |
| CCC(Sc1nc2ccccc2c2nc(CCn3cncc3C)nn12)C(=O)NC1CCCCC1 (stereo not shown) | 1.91% |
| CN1CCN(Cc2ccc(F)c(Br)c2)CC1 | -1.86% |
| CCOC(=O)C1=C(C)OC(N)=C(C#N)C1c1c(C)c(C)cc(C)c1C (stereo not shown) | 0.968% |
| Cc1ccc(N2CCN(c3ncnc4c3cnn4-c3ccccc3)CC2)cc1 | -6.74% |
| CCN1CCCC1CNC(=O)c1cnn(-c2ccc(F)cc2)c1C1CCN(C(=O)OC(C)(C)C)CC1 (stereo not shown) | -0.887% |
| COc1ccc(-c2cc(C(F)(F)F)n3nc(C(=O)NCC4CCCO4)cc3n2)cc1 (stereo not shown) | -0.795% |
| COc1c(Br)cc(Cl)cc1C1C(C#N)=C(N)OC2=C1C(=O)CC(C)(C)C2 (stereo not shown) | 8.5% |
| Cc1ccc(NC(=O)C23CC4CC(CC(C4)C2)C3)cc1[N+](=O)[O-] | -7.87% |
| OC(CN1CCNCC1)Cn1c2ccccc2c2cc(Br)ccc21 (stereo not shown) | 5.01% |
| CC(C)(C)OC(=O)NC(CC1CCOCC1)C(=O)NCC#N (stereo not shown) | -3.48% |

Source: PMC6919601, “Identification of Plasmodium dipeptidyl aminopeptidase allosteric inhibitors by high throughput screening” (PLoS ONE, 2019)
